Results are given in words; binding and its absence hold for the method and conditions named. Some results given as binding are weak or reduced against the parent protein; the word gives no strength. Sequences can lack the tags named with a protein.
How the values were obtained:
Experiment in all cases: two-hybrid; reporter strain PJ69-4A; bait fused to Gal4 DNA-binding domain, prey fused to Gal4 activation domain; growth on SC-Leu-Trp-His (HIS3) and SC-Leu-Trp-Ade (ADE2) plates, 3 days at 30°C
[1] = biological target: Rpl3.8C (Rpl3 lacking the first seven residues), yeast two-hybrid fusion (S. cerevisiae) (UniProt P14126)
[2] = biological target: Rpl3.F16A/L17A (full-length), yeast two-hybrid fusion (S. cerevisiae) (UniProt P14126)
[3] = biological target: Rpl3.F46A/L47A (full-length), yeast two-hybrid fusion (S. cerevisiae) (UniProt P14126)
[4] = biological target: Rpl3.H13A/L14A (full-length), yeast two-hybrid fusion (S. cerevisiae) (UniProt P14126)
[5] = biological target: Rpl3.H3E (full-length), yeast two-hybrid fusion (S. cerevisiae) (UniProt P14126)
[6] = biological target: Rpl3.K5E (full-length), yeast two-hybrid fusion (S. cerevisiae) (UniProt P14126)
[7] = biological target: Rpl3.N52 (first 52 amino acids of Rpl3), yeast two-hybrid fusion (S. cerevisiae) (UniProt P14126)
[8] = biological target: Rpl3.N52 F46A/L47A, yeast two-hybrid fusion (S. cerevisiae) (UniProt P14126)
[9] = biological target: Rpl3.N52 H13A/L14A, yeast two-hybrid fusion (S. cerevisiae) (UniProt P14126)
[10] = biological target: Rpl3.N52 H3E, yeast two-hybrid fusion (S. cerevisiae) (UniProt P14126)
[11] = biological target: Rpl3.N52 K5E, yeast two-hybrid fusion (S. cerevisiae) (UniProt P14126)
[12] = biological target: Rpl3.N52 R10A/H11A, yeast two-hybrid fusion (S. cerevisiae) (UniProt P14126)
[13] = biological target: Rpl3.N52 R10E/H11E, yeast two-hybrid fusion (S. cerevisiae) (UniProt P14126)
[14] = biological target: Rpl3.N52 Y6E, yeast two-hybrid fusion (S. cerevisiae) (UniProt P14126)
[15] = biological target: Rpl3.R10A/H11A (full-length), yeast two-hybrid fusion (S. cerevisiae) (UniProt P14126)
[16] = biological target: Rpl3.R10E/H11E (full-length), yeast two-hybrid fusion (S. cerevisiae) (UniProt P14126)
[17] = biological target: Rpl3.Y6E (full-length), yeast two-hybrid fusion (S. cerevisiae) (UniProt P14126)
[18] = biological target: full-length Rpl3, yeast two-hybrid fusion (S. cerevisiae) (UniProt P14126)
[19] = biological target: T1, full-length Btt1, yeast two-hybrid fusion (S. cerevisiae) (UniProt P40314)
T1 sequence: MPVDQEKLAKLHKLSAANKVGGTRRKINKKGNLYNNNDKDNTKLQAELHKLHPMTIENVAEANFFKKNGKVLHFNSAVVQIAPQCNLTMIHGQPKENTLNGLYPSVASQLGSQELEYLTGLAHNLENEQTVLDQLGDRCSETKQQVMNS

By UniProt entry, the sequences of proteins in these tests, tags left out. Where a name states a change or a piece, a line headed by the entry shows the natural chain unless it says otherwise. Residues count along the entry.
UniProt P14126: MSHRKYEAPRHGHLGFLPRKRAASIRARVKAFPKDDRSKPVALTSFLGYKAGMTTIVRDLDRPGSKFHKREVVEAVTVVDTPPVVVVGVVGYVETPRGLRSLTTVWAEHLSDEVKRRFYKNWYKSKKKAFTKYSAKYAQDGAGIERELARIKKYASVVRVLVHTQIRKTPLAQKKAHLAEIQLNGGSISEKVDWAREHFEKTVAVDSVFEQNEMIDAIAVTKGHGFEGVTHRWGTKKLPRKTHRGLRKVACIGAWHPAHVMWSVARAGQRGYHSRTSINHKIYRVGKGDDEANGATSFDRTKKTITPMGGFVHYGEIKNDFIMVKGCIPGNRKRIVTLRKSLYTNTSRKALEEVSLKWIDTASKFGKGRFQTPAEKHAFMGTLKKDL
Rpl3.N52 (first 52 amino acids of Rpl3), yeast two-hybrid fusion: residues 1-52 of P14126
Rpl3.8C (Rpl3 lacking the first seven residues), yeast two-hybrid fusion: residues 8-387 of P14126

[20] = biological target: T2, full-length Egd1, yeast two-hybrid fusion (S. cerevisiae) (UniProt Q02642)
T2 sequence: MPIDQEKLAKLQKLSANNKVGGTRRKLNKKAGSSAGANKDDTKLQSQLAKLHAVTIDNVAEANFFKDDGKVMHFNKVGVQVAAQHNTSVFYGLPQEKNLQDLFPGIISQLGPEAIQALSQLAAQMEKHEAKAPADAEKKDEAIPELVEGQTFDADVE

[21] = biological target: T3, full-length Egd2, yeast two-hybrid fusion (S. cerevisiae) (UniProt P38879)
T3 sequence: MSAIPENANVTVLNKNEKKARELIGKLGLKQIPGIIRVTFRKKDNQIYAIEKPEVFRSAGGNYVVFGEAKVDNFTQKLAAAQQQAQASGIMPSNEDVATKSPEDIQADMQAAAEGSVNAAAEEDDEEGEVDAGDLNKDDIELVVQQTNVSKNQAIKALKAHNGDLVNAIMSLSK

Measured: binding

B1: full-length Rrb1, yeast two-hybrid fusion (protein, UniProt Q04225 1-511)
chain: MSKRSIEVNEEQDRVVSAKTESHSVPAIPASEEQDAPKNDLEEQLSDEFDSDGEIIEIDGDDEINDEDDLRKKQEEAETLVQKDQSEGNKEKIQELYLPHMSRPLGPDEVLEADPTVYEMLHNVNMPWPCLTLDVIPDTLGSERRNYPQSILLTTATQSSRKKENELMVLALSNLAKTLLKDDNEGEDDEEDDEDDVDPVIENENIPLRDTTNRLKVSPFAISNQEVLTATMSENGDVYIYNLAPQSKAFSTPGYQIPKSAKRPIHTVKNHGNVEGYGLDWSPLIKTGALLSGDCSGQIYFTQRHTSRWVTDKQPFTVSNNKSIEDIQWSRTESTVFATAGCDGYIRIWDTRSKKHKPAISVKASNTDVNVISWSDKIGYLLASGDDNGTWGVWDLRQFTPSNADAVQPVAQYDFHKGAITSIAFNPLDESIVAVGSEDNTVTLWDLSVEADDEEIKQQAAETKELQEIPPQLLFVHWQKEVKDVKWHKQIPGCLVSTGTDGLNVWKTISV
no binding: [1] | [3] | [5] | [6] | [10] | [11] | [14] | [17]
not listed: [19] | [20] | [21]
binds: all other assays above

B2: full-length Cal4, yeast two-hybrid fusion (protein, UniProt P47086 1-261)
chain: MSETRESNESTVSSLQTKLLLNDGISENNKKNVILLNQIVPFILNTSHYMTDLMYVLYYLAQKQEDEVLNHSGTFISHKKELLALKSDICELIYDLRTGFRLLLDSCELDHFETPGKCRHLIEKVLVTSIYGVNRYIFQELNRLNVDFKDEFILQMQNCLSGFVNLYKFLNKIPMSKQQSQMNDLQMKILVNVLQNELLPIWKFQLDLLNCKLFNELSKDKGLINIYRKATNDSVIDVSKGEPFIRYVNWLKDQIIGEMTV
no binding: [19] | [20] | [21]
